# Out of some 330,000 compounds screened, about 4,200 (1.3%) were called active. The inconclusive results got no clear call from the source; some entries with a clear call stand among them for comparison. Calls follow the shape of the dose curve; as a rule, active = well fitted activation curve with a large enough effect; inconclusive = small, poorly fitted or top-dose-only effect; inactive = no such curve, though single readings can be large or run the other way. Potencies of inconclusive entries are doubtful fits and often do not repeat.
# Experiment: qHTS screen for small molecules that induce genotoxicity in human embryonic kidney (HEK293T) cells expressing luciferase-tagged ELG1; also: nearly all actives have a fitted effect of over 60% in size; as to activity change, positive = activation: % of control where 0% means no effect
# Conditions: HEK293T ELG1-luciferase reporter, luminescence, 16 h; series mostly up to 46 µM; activity change, positive = activation: at the top concentration
# Outline: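 Cells (2,000/well) expressing the ELG1-luciferase fusion are dosed by pin tool and kept 16 hr at 37 °C, 5% CO2. Signal comes from ONE-Glo luciferase reagent after 30 min at room temperature.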
# Potency is read from the fitted curve at half-maximal effect; tags tell the direction and shape of the fitted curve.
Structure (SMILES),Potency,"activity change, positive = activation"
CSc1ccccc1OCc1cc(C(=O)NCc2cccc(C)n2)no1,"inconclusive: 10.3 µM [activator, partial curve]",–
COc1cccc(/C=N/Nc2ccc([N+](=O)[O-])cc2)c1O,"inconclusive: 2.06 µM [activator, full curve]",–
NC(=O)c1ccc(CSc2nc3ccccc3s2)cc1,"inconclusive: 3.26 µM [activator, full curve]",–
COc1ccccc1N1CCN(/N=C/c2cccc(O)c2)CC1,"inconclusive: 16.4 µM [activator, partial curve]",–
O=C(c1ccc(F)cc1)N1CCC(n2nnc3ccccc32)CC1,"inconclusive: 18.3 µM [activator, partial curve]",–
CCOc1ccc(C(=O)NCC2CCCO2)cc1 (stereo not drawn),"inconclusive: 18.4 µM [activator, partial curve]",–
O=S(=O)(Nc1cc(Sc2ncn[nH]2)c(O)c2ccccc12)c1ccccc1,–,inactive: -12.8%
O=C(N/N=C/c1ccc(OCc2ccccc2)cc1)c1cc[n+](Cc2ccccc2)cc1,"inconclusive: 32.6 µM [activator, partial curve, poor fit]",–
Cc1ccc(S(=O)(=O)N(C)C)cc1NC(=O)c1c(-c2c(F)cccc2Cl)noc1C,–,inactive: -0.0252%
Cc1c(C)n(CCc2ccccc2)c2ncnc(NCCO)c12,"inconclusive: 6.51 µM [activator, partial curve]",–
COc1cccc(C(=O)Nc2cnn(C(C)C)c2)c1,"inconclusive: 25.9 µM [activator, partial curve, poor fit]",–
O=C(Nc1ccccc1F)c1coc(=O)c(Br)c1,"inconclusive: 29.1 µM [activator, single point]",–
Cn1c(NC(=O)c2ccc(F)cc2)nc2ccccc21,"inconclusive: 2.31 µM [activator, partial curve]",–
c1cnc(SCCOc2cccc3ccccc23)nc1,active: 11.6 µM,–
COc1ccc(NC(=O)c2cccc(F)c2)cc1Cl,active: 9.2 µM,–
Cn1cnc2cc(NC(=O)COc3ccccc3)ccc21,"inconclusive: 2.82 µM [activator, full curve]",–
C=C(C)CSc1nnc(-c2cccc(Cl)c2)n1N,"inconclusive: 5.17 µM [activator, single point]",–
CCCC1CCC(c2ccc(OCC)cc2)=CC1=O (stereo not drawn),"inconclusive: 2.06 µM [activator, partial curve, poor fit]",–
CC1Oc2ccccc2C=C1/C=N/Nc1ccc(C(=O)O)cc1 (stereo not drawn),active: 1.16 µM,–
Cc1cc(Cl)c2oc(C(=O)NCC(C)(C)N3CCOCC3)c(C)c2c1,"inconclusive: 23.1 µM [activator, partial curve, poor fit]",–
O=C(Nc1ccc(-c2nc3ccccc3s2)c(OC(=O)c2ccccc2)c1)c1ccccc1,"inconclusive: 2.06 µM [activator, full curve]",–
Cc1nnc(NC(=O)C2=COCCO2)s1,"inconclusive: 18.3 µM [activator, partial curve, poor fit]",–
C=CCN1C(=O)C(=O)N(Cc2nc3ccccc3s2)C1=O,"inconclusive: 3.55 µM [activator, single point]",–
S=c1[nH]c2ncccc2o1,–,inactive: -2.09%
CC(C(=O)O)c1ccc(C(=O)c2ccccc2)s1 (stereo not drawn),"inconclusive: 11.6 µM [activator, partial curve]",–

Structure (SMILES),Potency,"activity change, positive = activation"
COc1ccc(-n2c(=S)[nH]c3cc(C(=O)NCc4cccnc4)ccc3c2=O)c(OC)c1,–,inactive: -4.04%
COc1cc(OC)cc(C(=O)NNC(=O)CN2C(=O)NC(C)(c3ccccc3)C2=O)c1 (stereo not drawn),–,inactive: -4.38%
O=c1/c(=C\c2cccnc2)sc2nc3ccccc3n12,"inconclusive: 25.9 µM [activator, partial curve, poor fit]",–
CCC[C@@H]1CCCC/C=C\CCCC(=O)OCCN1C(=O)OC(C)(C)C,–,inactive: -1.79%
COC(=O)C1CCN(C(=O)Cc2ccc(Br)cc2)CC1,"inconclusive: 29.1 µM [activator, single point]",–
COc1ccc(-c2oc(=O)c3cc(OC)c(OC)cc3c2-c2cc(F)cc(OC)c2)cc1,–,inactive: -0.553%
CC(C)c1cc(C(=O)N/N=C/c2c[nH]c3ccccc23)n[nH]1,–,inactive: 5.16%
COc1ccc(Cn2c(/C=C/c3ccccc3)nc3ccccc32)cc1,"inconclusive: 3.66 µM [activator, full curve]",–
CCOc1ccc2nc(N3CCCC(C(=O)NCCCN4CCCCC4)C3)sc2c1 (stereo not drawn),"inconclusive: 20.6 µM [activator, partial curve, poor fit]",–
COc1ccc(C(c2nnnn2C2CCCC2)N2CCC(C)CC2)cc1 (stereo not drawn),–,inactive: 8.36%
COC(=O)c1ccc2c(c1)C(C)(C)C(/C=C/c1ccc(O)cc1)=[N+]2C,"inconclusive: 6.51 µM [activator, single point]",–
CC1(C)Cc2c(sc(NC(=O)c3ccco3)c2C#N)C(C)(C)N1,"inconclusive: 18.4 µM [activator, partial curve, poor fit]",–
O=C(Nc1ccc(F)cc1F)c1cc2ncc(Br)cn2n1,"inconclusive: 18.4 µM [activator, partial curve, poor fit]",–
CCOC(=O)c1c(C)[nH]c(C(=O)COC(=O)CCC2CCCC2)c1C,–,inactive: 13%
NC(=O)c1c(NC(=O)c2ccc(F)cc2)sc2c1CCC2,"inconclusive: 2.91 µM [activator, partial curve]",–
COC1=C/C(=C/c2c(N)n3nc(-c4ccc(C)cc4)sc3nc2=O)C=CC1=O,"inconclusive: 23.1 µM [activator, partial curve]",–
O=C(Nc1ccc(Cl)cc1)Nn1cnc2ccccc2c1=O,"inconclusive: 23.1 µM [activator, partial curve, poor fit]",–
COCCNc1cc(C)nc2cc(-c3ccc(C)cc3)nn12,"inconclusive: 23.1 µM [activator, partial curve, poor fit]",–
NS(=O)(=O)c1ccc(Nc2nc(-c3ccccc3)cs2)cc1,"inconclusive: 8.91 µM [activator, partial curve, poor fit]",–
Cc1cc(Cl)cc2sc(NC(=O)C3CC3)nc12,–,inactive: -0.973%
CCOc1ccc(NC(=O)c2ccc(NC(=O)COC(=O)c3ccc(NC(=O)CC#N)cc3)cc2)cc1,active: 5.17 µM,–
O=C(OCC(=O)c1cccs1)c1ccccc1,"inconclusive: 18.4 µM [activator, single point]",–
C=CCNC(=O)c1ccc2c3n(nc2c1)-c1ccccc1CO3,"inconclusive: 1.16 µM [activator, partial curve]",–
Cc1ccc(-c2nc3n(n2)Cc2ccccc2-3)cc1,"inconclusive: 0.461 µM [activator, full curve]",–
Cn1c(CCc2ccc(N)cc2)nc2ccccc21,"inconclusive: 9.2 µM [activator, partial curve]",–

Structure (SMILES),Potency,"activity change, positive = activation"
Cc1cc(C)nc(NC(=O)NC(=O)c2ccccc2)n1,–,inactive: 0.0365%
C/C(=N\NC(=O)c1ccco1)c1cc(Cl)sc1Cl,"inconclusive: 23.1 µM [activator, single point]",–
O=S(=O)(NC1C2CC3CC(C2)CC1C3)c1ccccc1 (stereo not drawn),–,inactive: -1.09%
COC(=O)c1ccc2nc(Nc3nc4c(F)cc(F)cc4s3)sc2c1,"inconclusive: 1.84 µM [activator, partial curve, poor fit]",–
CCOc1ccc(Nc2cc(C)c3ccccc3n2)cc1,–,inactive: 10.5%
CCOC(=O)Cn1cnc2c(cnn2-c2ccc(OC)cc2)c1=O,"inconclusive: 20.6 µM [activator, partial curve, poor fit]",–
CC(C)C[C@@H](CSc1ccccc1)N1CCN(CC(C)C)CCC1=O,"inconclusive: 16.4 µM [activator, partial curve, poor fit]",–
CCCc1ccc(OCCNC(=O)c2ccco2)cc1,"inconclusive: 11.6 µM [activator, partial curve, poor fit]",–
CN(C)S(=O)(=O)c1cccc(C(=O)Nc2ccc(Cl)cn2)c1,"inconclusive: 18.4 µM [activator, single point]",–
COc1ccc(/C=C2\SC(=O)N(CCNC(=O)C3=COCCO3)C2=O)cc1,active: 16.4 µM,–
Cc1cccc(NC(=O)c2cc3ccccc3o2)c1,active: 20.6 µM,–
Cc1ccccc1C(=O)O/N=C(\N)c1ccccc1,active: 1.64 µM,–
COc1cc(O)c2c(=O)c3c(OC)c(O)ccc3oc2c1,"inconclusive: 18.4 µM [activator, single point]",–
Cn1c2c(c(=O)n(C)c1=O)C(CC(=O)Nc1ccccc1)C(=O)N2 (stereo not drawn),–,inactive: -1.32%
Cc1ccc(C(=O)/C=C/C(=O)O)cc1,–,inactive: 0.125%
COc1ccc(N/C=C/C(=O)c2ccccc2)cc1,active: 0.411 µM,–
COC(=O)c1ccc(N(CC(=O)NC2CCCC2)C(=O)c2ccc(C)s2)cc1,–,inactive: -10.1%
Cc1ocnc1C(=O)Nc1ccc(Cl)cc1,"inconclusive: 10.3 µM [activator, partial curve, poor fit]",–
O=C(Nc1ccc(Cl)c(Cl)c1)Nc1ccc(N2CCCC2)c(S(=O)(=O)Nc2ccccc2Cl)c1,–,inactive: -0.381%
O=C(COc1cc(Cl)c(Cl)cc1Cl)Nc1cccc(O)c1,"inconclusive: 4.61 µM [activator, full curve]",–
Nc1c(C(=O)Nc2ccc3c(c2)OCCO3)nnn1CCc1ccccc1,"inconclusive: 13 µM [activator, partial curve]",–
COc1ccccc1N1C(=O)C=C(Sc2nc(C)cc(C)n2)C1=O,–,inactive: 0.678%
O=C(CS(=O)c1ccc(C(F)(F)F)cc1[N+](=O)[O-])Oc1ccc(Cl)cc1 (stereo not drawn),"inconclusive: 29.1 µM [activator, single point]",–

# Source: PubChem BioAssay AID504466 (National Center for Advancing Translational Sciences (NCATS), 2011)
